The campaign covered roughly 150,000 compounds. About 540 (0.36%) showed an effect of 50% or more. Some of the results follow.

This test concerns Plasmodium falciparum. Description: Primary screen in NF54 nanoGlo assay, in single point, at 2uM, 72h; a lower Z score goes with more inhibition. In kind it is functional, Erythrocyte. To be noted: timepoint 72 hour.
On to `COc1cccc(S(=O)(=O)NC[C@H]2CCN(C)C(=O)C2)c1OC`, for which the “% Inhibition” value is given as -10% and the Z score is given as 1.94.

Regarding `O=C(NC1CCCCCCC1)c1cc2n(n1)C[C@@H](O)CNC2=O`, the “% Inhibition” value was -7% and the Z score came out at 0.68.

Take `COC(=O)[C@@H](NC(=O)Nc1ccccc1OC)C(C)C`: the “% Inhibition” value is recorded as -6% and the Z score is given as 0.49.

As for `O=C(OCc1csc(-c2ccccc2)n1)C1CCN(S(=O)(=O)c2ccc(Cl)cc2)CC1`, the “% Inhibition” value is given as 2% and the Z score is -0.38.

Regarding `CC(=O)N(Cc1cccnc1)[C@H]1CCCN(C(=O)Nc2ccc3c(c2)OCCO3)C1`, the “% Inhibition” value was -11% and the Z score is recorded as 1.94.

In the case of `CN(C(=O)[C@@H]1C[C@H]1C(=O)N(C)c1ncccc1F)c1ncccc1F`, the “% Inhibition” value is recorded as -20% and the Z score amounted to 2.4.

`CCCc1ccc(C(=O)N2CCC(S(=O)(=O)c3ccc(F)cc3)CC2)cc1`: the “% Inhibition” value is -11% and the Z score came out at 1.46.

On to `C[C@H](C(=O)c1ccccc1)C12C(=O)NC(=O)C1C(=O)NC2=O` (some centres undefined), for which the “% Inhibition” value is listed as -11% and the Z score was 1.33.

In the case of `CCc1ccc(C(=O)N2C[C@H](C(=O)NC)C3(CCCC3)C2)cc1`, the “% Inhibition” value was -10% and the Z score is recorded as 1.26.

Turning to `Cc1c(NC(=O)c2ccccc2OC[C@H]2CCCO2)c(=O)n(-c2ccccc2)n1C`, the “% Inhibition” value was -19% and the Z score was 2.11.

Consider `COc1cnc(C(=O)N2Cc3cc(OC)c(OC)cc3C[C@H]2C(N)=O)cc1O`, for which the “% Inhibition” value is -7% and the Z score is recorded as 1.33.

Consider `CN1CCC(N(CCO)Cc2csc3ccccc23)CC1`, for which the “% Inhibition” value is listed as -1% and the Z score is listed as 0.16.

In the case of `COc1ccc(-c2nc3ccc(C(=O)NCc4cccc(OC)c4)cc3nc2-c2ccc(OC)cc2)cc1`, the “% Inhibition” value is -1% and the Z score is listed as 0.16.

Turning to `CCOC(=O)CN1CCC(Cn2cnc3ccccc32)CC1`, the “% Inhibition” value was 12% and the Z score is -1.42.

For the compound `C[C@H](NC(=O)c1cc(C(=O)O)co1)c1nc(C2CCCC2)no1`, the “% Inhibition” value was -9% and the Z score is on record as 1.23.

Take `CN(C[C@H]1COc2ccccc2O1)C(=O)c1c[nH]c(=O)c(Cl)c1`: the “% Inhibition” value is given as -4% and the Z score is listed as 0.55.

`Cc1nc(N[C@@H]2[C@@H]3CCO[C@@H]3[C@H]2NS(C)(=O)=O)c2sccc2n1`: the “% Inhibition” value worked out at 0% and the Z score was -0.08.

As to `CS(=O)(=O)CC1(COc2ccc3c(n2)CCC3)CC1`, the “% Inhibition” value amounted to 4% and the Z score is -0.61.

`CCc1ccc(NC(=O)Cc2c(C)nc3nc(-c4cccnc4)nn3c2C)cc1`: the “% Inhibition” value worked out at 3% and the Z score was -0.48.

`O=C(NCc1ccsc1)NC[C@H](O)c1cccs1`: the “% Inhibition” value amounted to 16% and the Z score is listed as -2.07.

Turning to `Cc1cc2c(cc1NC(=O)Cn1ncccc1=O)N(C)S(=O)(=O)N2C`, the “% Inhibition” value is -12% and the Z score is on record as 1.41.

Turning to `CC(C)NC(=O)N1CC[C@]2(C1)c1nc[nH]c1CCN2CC1CC1`, the “% Inhibition” value is listed as -13% and the Z score is 2.3.

As for `CC1(C)C(CNC(=O)C2CC3CCC2O3)C1c1ccccc1` (centres undefined), the “% Inhibition” value was found to be 5% and the Z score is listed as -0.75.

As for `CC(C)Cn1c(CNC(=O)c2ccco2)nnc1N1CC[C@H](C(C)(C)C)C1`, the “% Inhibition” value was found to be 2% and the Z score was -0.17.

`COc1nc(C)cc(C)c1CN1CCC[C@@](O)(CO)C1`: the “% Inhibition” value is 0% and the Z score was found to be 0.06.

In the case of `O=C(c1cc(C2CC2)n[nH]1)N1CCN(c2cccc(C(F)(F)F)c2)CC1`, the “% Inhibition” value is given as -11% and the Z score is 0.95.

Take `C[C@@H](CC(=O)NC1CCCCCCC1)CC1=Nc2ccccc2S(=O)(=O)N1`: the “% Inhibition” value is given as -12% and the Z score was 1.47.

As for `Cc1ccc2ccc3cc(C(=O)N4CCN(c5ccc(F)cc5)CC4)[nH]c3c2n1`, the “% Inhibition” value is listed as -8% and the Z score is recorded as 1.3.

In the case of `N#CCC1(O)CN(C(=O)c2ccc3cc[nH]c3c2)C1`, the “% Inhibition” value came to 3% and the Z score is given as -0.32.

Take `NC(=O)[C@@H]1CCCN1Cc1c[nH]nc1-c1ccc(F)cc1`: the “% Inhibition” value was -7% and the Z score is given as 0.99.

As for `CCN(C[C@H]1CCOC1)C(=O)Cn1ccc(C(F)(F)F)n1`, the “% Inhibition” value was -8% and the Z score came to 1.06.

Take `COc1cc(C(=O)NCCc2nccn2C)ccc1OC1CCN(C)CC1`: the “% Inhibition” value is reported as -8% and the Z score is given as 0.96.

Consider `COc1ccc(CN2[C@@H]3CN(S(=O)(=O)c4ccc(Cl)cc4)C[C@@H]3OCCS2(=O)=O)cc1`, for which the “% Inhibition” value is given as 15% and the Z score was -1.74.

For `Cc1ccn2cc(CNC(=O)Nc3cccc(F)c3)nc2n1`, the “% Inhibition” value is -8% and the Z score is 1.28.

Turning to `CC(=O)C(C(=O)Nc1ccc(F)cc1)C(c1cccc(C(F)(F)F)c1)C(C#N)C#N` (centres undefined), the “% Inhibition” value is reported as 7% and the Z score was -1.11.

With `COc1cc(CNc2ccc(C(=O)NC3CCCCC3)cc2C)ccn1`, the “% Inhibition” value was found to be 14% and the Z score was -1.93.

Regarding `CCn1cc(-c2ccc(Cl)cc2)cc1C(=O)N1CCN(C(C)C)CC1`, the “% Inhibition” value came to 1% and the Z score was -0.21.

For the compound `C[C@H]1CN(S(=O)(=O)CCc2ccc3c(c2)CCO3)c2ccc(F)cc2O1`, the “% Inhibition” value is reported as -8% and the Z score is recorded as 1.13.

With `CC(C)(C)C(=O)NCC(=O)Nc1cc(C(F)(F)F)ccc1O`, the “% Inhibition” value is given as -10% and the Z score is 1.82.

For the compound `c1coc(-c2ccccc2-c2nccn2CCn2cnnc2)c1`, the “% Inhibition” value is on record as -2% and the Z score is on record as 0.2.

Regarding `FC(F)(F)c1nn2c(-c3ccc(Cl)cc3)nnc2c2c1nnn2Cc1ccccc1`, the “% Inhibition” value is reported as -2% and the Z score is recorded as 0.32.

On to `CCn1nc(CN2CCC3(CCC3)S(=O)(=O)CC2)c2ccccc21`, for which the “% Inhibition” value turned out to be 1% and the Z score was -0.27.

In the case of `Cc1ccc(-c2cccnc2)cc1NC(=O)N1CC[S+]([O-])CCC1C` (centres undefined), the “% Inhibition” value is -14% and the Z score came to 1.78.

In the case of `CC(C)C1CCCC(NC(=O)CCc2ncc[nH]2)CC1` (centres undefined), the “% Inhibition” value is reported as 8% and the Z score is -1.09.

Turning to `Cc1cc(S(=O)(=O)Nc2cccc(CN3CCOCC3)n2)sc1C`, the “% Inhibition” value is listed as -15% and the Z score is recorded as 1.62.

In the case of `C[C@@H](C1CC1)N(C(=O)Cn1nnnc1C1CCCC1)C1CC1`, the “% Inhibition” value amounted to 33% and the Z score is given as -2.77.

As to `CCCc1nc(CNS(=O)(=O)N2CCOCC2)cs1`, the “% Inhibition” value was -4% and the Z score amounted to 0.78.

As for `COc1ccc(CN(C(=O)c2sccc2Cl)c2ccncc2)cc1`, the “% Inhibition” value stood at 2% and the Z score was -0.44.

In the case of `CC(C)OCC(=O)NCCc1ncnn1C`, the “% Inhibition” value was -21% and the Z score was determined as 2.07.

For `Cc1nc(C)c(Cn2c(=O)n(C)c3ccccc32)s1`, the “% Inhibition” value came to 3% and the Z score is reported as -0.26.

With `COc1cc(OC)cc([C@@H](CC(=O)NCCC(c2ccccc2)c2ccccc2)c2cnc3ccc(Cl)cn23)c1`, the “% Inhibition” value was -5% and the Z score was 0.64.

In the case of `CN(C(=O)c1cnn(-c2ccccc2)c1C1CC1)C1CCC1`, the “% Inhibition” value is given as -8% and the Z score came out at 1.25.

For the compound `COc1cc2c(cc1OC)CN(C(=O)C1CCN(S(=O)(=O)c3ccc(C)cc3)CC1)CC2`, the “% Inhibition” value is recorded as -8% and the Z score is listed as 1.58.

Consider `CN1[C@@H](CCC(=O)Nc2ccccc2)CNC(=O)[C@@H]2[C@H]1CCN2Cc1csnn1`, for which the “% Inhibition” value came out at 17% and the Z score is recorded as -1.93.

`Cc1nc2ccc(N3C(=O)[C@H](C)N(Cc4ccccc4)C3=O)cc2o1`: the “% Inhibition” value is -10% and the Z score worked out at 1.26.

In the case of `Cc1cnc([C@H](C)NS(=O)(=O)c2cccc3nsnc23)s1`, the “% Inhibition” value is reported as -4% and the Z score amounted to 0.45.

Consider `CCN1CC(C)N(C(=O)c2n[nH]c3ccccc23)CC1C` (centres undefined), for which the “% Inhibition” value is -7% and the Z score was determined as 0.72.

On to `CC(CC(=O)N1CCCC(c2nc(=O)[nH][nH]2)C1)c1ccc(F)cc1` (centres undefined), for which the “% Inhibition” value was -2% and the Z score turned out to be 0.35.

On to `C[C@@H](C#N)N1CCN(C(=O)OCc2ccccc2)CC1`, for which the “% Inhibition” value is 3% and the Z score is given as -0.3.

For `COc1ccc([C@H]2OCC[C@@H]2NC(=O)Nc2ncn(C(C)(C)C)n2)cn1`, the “% Inhibition” value is reported as -4% and the Z score was 0.5.

As to `C[C@]1(O)CCN(C(=O)c2ccc3nccnc3c2)C[C@H]1O`, the “% Inhibition” value is recorded as -7% and the Z score worked out at 0.82.

`Cc1cc(C2CCC2)nc(N(C)Cc2nccn2C)n1`: the “% Inhibition” value is -4% and the Z score was 0.73.

As to `CS(=O)(=O)N1CCc2cc(C(=O)N3CCC[C@H](CO)C3)ccc21`, the “% Inhibition” value was 4% and the Z score is recorded as -0.43.

Regarding `Cn1c(CN2CCNC(=O)[C@@H]2CCO)nc2ccccc21`, the “% Inhibition” value is reported as -13% and the Z score was 1.39.

Consider `Cc1ccc(Nc2n[nH]c(N)c2NC(=O)c2ccccc2)cc1`, for which the “% Inhibition” value came out at 4% and the Z score is -0.52.

With `COc1ccc(NC(=O)c2nnc([C@H]3CCCN(C(=O)Nc4cc(C)ccc4C)C3)s2)cc1`, the “% Inhibition” value is listed as -10% and the Z score turned out to be 1.51.

As to `O=C1CCCc2nc(N3CCc4ccccc4C3)ncc21`, the “% Inhibition” value stood at 34% and the Z score is given as -3.82.

With `C[C@]1(O)CCN(c2ncnc3[nH]cnc23)C[C@H]1Cc1ccccc1`, the “% Inhibition” value came to 14% and the Z score is -1.93.

Take `COc1ccccc1CNC(=O)c1nnc(-c2oc3ccc(C)cc3c2C)o1`: the “% Inhibition” value was determined as 13% and the Z score was -1.53.

For the compound `CCOC1CC(NC(=O)c2c(C)noc2C)C12CCCC2` (centres undefined), the “% Inhibition” value is -5% and the Z score is listed as 0.88.

For `Cc1ccc(Cl)cc1NC(=O)[C@H]1CCn2c(nc3ccccc32)C1`, the “% Inhibition” value is reported as -3% and the Z score is reported as 0.28.

In the case of `COc1cccc(C(=O)NC(C)C)c1O`, the “% Inhibition” value was -12% and the Z score worked out at 1.04.

Take `COC(=O)c1cc(C(=O)NC[C@H]2CCCOC2)cn1C`: the “% Inhibition” value was 7% and the Z score is given as -1.12.

As to `Cc1oc(-c2cc(F)cc(F)c2)nc1CN1CCC(=O)NC[C@@H]1C`, the “% Inhibition” value is -9% and the Z score turned out to be 1.18.

Take `CCCCN(CC)C(=O)Nc1cc(Cl)c(OC)cc1OC`: the “% Inhibition” value stood at 1% and the Z score was -0.07.

On to `c1cc(-n2cnnc2)ccc1OC[C@H]1CCCO1`, for which the “% Inhibition” value is recorded as -6% and the Z score turned out to be 1.04.

As for `O=C(c1ccc2c(c1)CCCN2S(=O)(=O)c1ccccc1)N1CCN(Cc2ccccc2)CC1`, the “% Inhibition” value amounted to 0% and the Z score was -0.05.

For the compound `CCc1cccc(NC(=O)N2CCN(c3nc(-c4cccc(C(F)(F)F)c4)nc(C)c3CC)CC2)c1`, the “% Inhibition” value is on record as -3% and the Z score is listed as 0.35.

`O=C(CNC(=O)NCC1CCCC1)Nc1cccc2c1OCO2`: the “% Inhibition” value is -7% and the Z score was found to be 0.84.

In the case of `Cc1ccc(S(=O)(=O)NC[C@H]2O[C@@H](CO)[C@@H](O)[C@H]2N2CCOCC2)cc1`, the “% Inhibition” value is on record as 19% and the Z score was -2.24.

For the compound `COc1cc(=O)n2c(c1C(=O)N1CCc3ccccc3C1)CCN(C(=O)c1[nH]c(C)cc1C)CC2`, the “% Inhibition” value is 7% and the Z score is -0.79.

Take `CNC(=O)C(C)CN(C)C(=O)Nc1ccc(N2CCC(C)C2)cc1` (centres undefined): the “% Inhibition” value is -6% and the Z score turned out to be 0.49.

The % Inhibition is the change of the read-out against control, counted positive when it falls.
